# US11618753B2 (priority 2018, dated 2023)
# Test system: MLKL phosphorylation, HT29-L23 human colorectal adenocarcinoma cells
# Assay: cells
# Conditions: read-out: pMLKL HCS Cell Assay (IC50, uM)
row,Structure (SMILES),IC50 [µM]
1,"Nc1ncnn2c(C3=C[C@@H](C(=O)NCc4cc(OC(F)(F)F)ccc4F)NC3)cc(C(F)(F)F)c12 [Example 39, (25)-4-{4-aminopyrrolo[2,1-f][1,2,4]triazin-7-yl}-N-{[2-fluoro-5-(trifluoromethoxy)phenyl]methyl}-2,5-dihydro-1H-pyrrole-2-carboxamide]",0.327
2,"COc1ncc(-c2cc(C)c3c(N)ncnn23)cc1C(=O)Nc1cnn(Cc2ccccc2)c1 [Example 42, 5-{4-amino-5-methylpyrrolo[2,1-f][1,2,4]triazin-7-yl}-N-(1-benzyl-1H-pyrazol-4-yl)-2-methoxypyridine-3-carboxamide]",0.0087
3,"COc1ncc(-c2cc(C(F)(F)F)c3c(N)ncnn23)cc1C(=O)N[C@@H]1CN(C(=O)c2ccc(F)cc2)C[C@@H]1F [Example 43, 5-[4-amino-5-(trifluoromethyl)pyrrolo[2,1-f][1,2,4]triazin-7-yl]-N-[(3R,4S)-4-fluoro-1-(4-fluorobenzoyl)pyrrolidin-3-yl]-2-methoxypyridine-3-carboxamide]",0.011
4,"[2H]C([2H])([2H])Oc1nc(C)c(-c2cc(C(F)(F)F)c3c(N)ncnn23)cc1C(=O)N[C@@H]1CN(C(=O)c2ccc(F)cc2)C[C@@H]1F [Example 46, 5-[4-amino-5-(trifluoromethyl)pyrrolo[2,1-f][1,2,4]triazin-7-yl]-N-[(3R,4S)-4-fluoro-1-(4-fluorobenzoyl)pyrrolidin-3-yl]-2-(deutero)methoxy-6-methylpyridine-3-carboxamide]",0.109
5,"COc1ncc(-c2cc(Cl)c3c(N)ncnn23)cc1C(=O)Nc1cnn(CC(C)(C)C)c1 [Example 47, 5-(4-amino-5-chloropyrrolo[2,1-f][1,2,4]triazin-7-yl)-2-methoxy-N-(1-neopentyl-1H-pyrazol-4-yl)nicotinamide]",0.16
6,"COc1ncc(-c2cc(C(F)(F)F)c3c(N)ncnn23)cc1C(=O)Nc1cnn(CC(C)(C)C)c1 [Example 48, 5-(4-amino-5-(trifluoromethyl)pyrrolo[2,1-f][1,2,4]triazin-7-yl)-2-methoxy-N-(1-neopentyl-1H-pyrazol-4-yl)nicotinamide]",0.0086
7,"COCc1cc(-c2cnc(OC)c(C(=O)Nc3cnn(Cc4ccccc4)c3)c2)n2ncnc(N)c12 [Example 49, 5-(4-amino-5-(methoxymethyl)pyrrolo[2,1-f][1,2,4]triazin-7-yl)-N-(1-benzyl-1H-pyrazol-4-yl)-2-methoxynicotinamide]",0.00046
8,"COCc1cc(-c2cnc(OC)c(C(=O)NCC[C@H](O)c3ccc(Cl)cc3)c2)n2ncnc(N)c12 [Example 50, (S)-5-(4-amino-5-(methoxymethyl)pyrrolo[2,1-f][1,2,4]triazin-7-yl)-N-(3-(4-chlorophenyl)-3-hydroxypropyl)-2-methoxynicotinamide]",0.0036
9,"COc1ncc(-c2cc(CO)c3c(N)ncnn23)cc1C(=O)Nc1cnn(Cc2ccccc2)c1 [Example 51, 5-(4-amino-5-(hydroxymethyl)pyrrolo[2,1-f][1,2,4]triazin-7-yl)-N-(1-benzyl-1H-pyrazol-4-yl)-2-methoxynicotinamide]",0.0037
10,"COc1ncc(-c2cc(CO)c3c(N)ncnn23)cc1C(=O)NCC[C@H](O)c1ccc(Cl)cc1 [Example 52, (S)-5-(4-amino-5-(hydroxymethyl)pyrrolo[2,1-f][1,2,4]triazin-7-yl)-N-(3-(4-chlorophenyl)-3-hydroxypropyl)-2-methoxynicotinamide]",0.042
11,"COc1ncc(-c2cc(CN)c3c(N)ncnn23)cc1C(=O)Nc1cnn(Cc2ccccc2)c1 [Example 53, 5-(4-amino-5-(aminomethyl)pyrrolo[2,1-f][1,2,4]triazin-7-yl)-N-(1-benzyl-1H-pyrazol-4-yl)-2-methoxynicotinamide]",0.0044
12,COc1ncc(-c2ccc3c(NCCO)ncnn23)cc1C(=O)NCC[C@H](O)c1ccc(Cl)cc1 [Example 54],0.263
13,"COc1ncc(-c2ccc3c(NCCO)ncnn23)cc1C(=O)Nc1cnn(Cc2ccccc2)c1 [Example 55, N-(1-benzyl-1H-pyrazol-4-yl)-5-(4-((2-hydroxyethyl)amino)pyrrolo[2,1-f][1,2,4]triazin-7-yl)-2-methoxynicotinamide]",0.479
14,"COCCNc1ncnn2c(-c3cnc(OC)c(C(=O)Nc4cnn(Cc5ccccc5)c4)c3)ccc12 [Example 56, N-(1-benzyl-1H-pyrazol-4-yl)-2-methoxy-5-(4-((2-methoxyethyl)amino)pyrrolo[2,1-f][1,2,4]triazin-7-yl)nicotinamide]",0.076
15,"COc1ncc(-c2cc(CNCCO)c3c(N)ncnn23)cc1C(=O)NCC[C@H](O)c1ccc(Cl)cc1 [Example 57, (S)-5-(4-amino-5-(((2-hydroxyethyl)amino)methyl)pyrrolo[2,1-f][1,2,4]triazin-7-yl)-N-(3-(4-chlorophenyl)-3-hydroxypropyl)-2-methoxynicotinamide]",0.014
16,"COc1ncc(-c2cc(CNCCO)c3c(N)ncnn23)cc1C(=O)Nc1cnn(Cc2ccccc2)c1 [Example 58, 5-(4-amino-5-(((2-hydroxyethyl)amino)methyl)pyrrolo[2,1-f][1,2,4]triazin-7-yl)-N-(1-benzyl-1H-pyrazol-4-yl)-2-methoxynicotinamide]",0.0041

row,Structure (SMILES),IC50 [µM]
1,"Nc1ncnn2c(-c3cccc(C(=O)NCCC(O)c4ccccc4)c3)ccc12 (centres unmarked) [Example 59, 3-(4-aminopyrrolo[2,1-f][1,2,4]triazin-7-yl)-N-(3-hydroxy-3-phenylpropyl)benzamide]",0.231
2,"Nc1ncnn2c(-c3cccc(C(=O)Nc4cnn(Cc5ccccc5)c4)c3)ccc12 [Example 60, 3-(4-aminopyrrolo[2,1-f][1,2,4]triazin-7-yl)-N-(1-benzyl-1H-pyrazol-4-yl)benzamide]",0.041
3,"COc1ncc(-c2c(F)cc3c(N)ncnn23)cc1C(=O)NCCC(C)c1ccccc1 (centres unmarked) [Example 61, 5-(4-amino-6-fluoropyrrolo[2,1-f][1,2,4]triazin-7-yl)-2-methoxy-N-(3-phenylbutyl)nicotinamide]",0.03
4,"COc1ncc(-c2c(F)cc3c(N)ncnn23)cc1C(=O)Nc1cnn(Cc2ccccc2)c1 [Example 62, 5-(4-amino-6-fluoropyrrolo[2,1-f][1,2,4]triazin-7-yl)-N-(1-benzyl-1H-pyrazol-4-yl)-2-methoxynicotinamide]",0.037
5,"COc1ncc(-c2cc(CN)c3c(N)ncnn23)cc1C(=O)NCC[C@H](O)c1ccc(Cl)cc1 [Example 63, (S)-5-(4-amino-5-(aminomethyl)pyrrolo[2,1-f][1,2,4]triazin-7-yl)-N-(3-(4-chlorophenyl)-3-hydroxypropyl)-2-methoxynicotinamide]",0.123
6,"COc1ccc(-c2cc(C(F)(F)F)c3c(N)ncnn23)cc1C(=O)Nc1cnn(Cc2ccccc2)c1 [Example 65, 5-[4-amino-5-(trifluoromethyl)pyrrolo[2,1-f][1,2,4]triazin-7-yl]-N-(1-benzyl-1H-pyrazol-4-yl)-2-methoxybenzamide]",0.0035
7,"COc1ncc(-c2cc(F)c3c(N)ncnn23)cc1C(=O)N[C@@H]1CN(C(=O)C2CC(F)(F)C2)C[C@@H]1F [Example 66, 5-{4-amino-5-fluoropyrrolo[2,1-f][1,2,4]triazin-7-yl}-N-[(3R,4S)-1-(3,3-difluorocyclobutanecarbonyl)-4-fluoropyrrolidin-3-yl]-2-methoxypyridine-3-carboxamide]",0.183
8,"Cc1cc(F)c(-c2cc(C(F)(F)F)c3c(N)ncnn23)cc1C(=O)N[C@@H]1CN(C(=O)C2CC(F)(F)C2)C[C@@H]1F [Example 67, 5-(4-amino-5-(trifluoromethyl)pyrrolo[2,1-f][1,2,4]triazin-7-yl)-N-((3R,4S)-1-(3,3-difluorocyclobutane-1-carbonyl)-4-fluoropyrrolidin-3-yl)-4-fluoro-2-methylbenzamide]",0.0052
9,"COc1ncc(-c2cc(C(=O)NCCNC(C)=O)c3c(N)ncnn23)cc1C(=O)NCC[C@H](O)c1ccc(Cl)cc1 [Example 68, 5-{4-amino-5-[(2-acetamidoethyl)carbamoyl]pyrrolo[2,1-f][1,2,4]triazin-7-yl}-N-[(3S)-3-(4-chlorophenyl)-3-hydroxypropyl]-2-methoxypyridine-3-carboxamide]",0.348
10,"Nc1ncnn2c(-c3cccc(C(=O)Nc4cnn(Cc5ccccc5)c4)c3)c(F)cc12 [Example 71, 3-{4-amino-6-fluoropyrrolo[2,1-f][1,2,4]triazin-7-yl}-N-(1-benzyl-1H-pyrazol-4-yl)benzamide]",0.065
11,"Nc1ncnn2c(-c3cccc(C(=O)NCCC(O)c4ccccc4)c3)cc(C(F)(F)F)c12 (centres unmarked) [Example 72, 3-[4-amino-5-(trifluoromethyl)pyrrolo[2,1-f][1,2,4]triazin-7-yl]-N-(3-hydroxy-3-phenylpropyl)benzamide]",0.074
12,"Nc1ncnn2c(-c3cccc(C(=O)NCCC(O)c4ccc(F)cc4)c3)cc(C(F)(F)F)c12 (centres unmarked) [Example 74, 3-[4-amino-5-(trifluoromethyl)pyrrolo[2,1-f][1,2,4]triazin-7-yl]-N-[3-(4-fluorophenyl)-3-hydroxypropyl]benzamide]",0.03
13,"Nc1ncnn2c(-c3cccc(C(=O)Nc4cnn(CC5CC5)c4)c3)cc(C(F)(F)F)c12 [Example 75, 3-[4-amino-5-(trifluoromethyl)pyrrolo[2,1-f][1,2,4]triazin-7-yl]-N-[1-(cyclopropylmethyl)-1H-pyrazol-4-yl]benzamide]",0.081
14,"Nc1ncnn2c(-c3cccc(C(=O)Nc4cnn(Cc5ccccc5)c4)c3)cc(C(F)(F)F)c12 [Example 76, 3-[4-amino-5-(trifluoromethyl)pyrrolo[2,1-f][1,2,4]triazin-7-yl]-N-(1-benzyl-1H-pyrazol-4-yl)benzamide]",0.0041
15,"Nc1ncnn2c(-c3cccc(C(=O)N[C@H]4CCN(Cc5ccccc5)C4)c3)cc(C(F)(F)F)c12 [Example 78, 3-[4-amino-5-(trifluoromethyl)pyrrolo[2,1-f][1,2,4]triazin-7-yl]-N-[(3S)-1-benzylpyrrolidin-3-yl]benzamide]",0.113
16,"Nc1ncnn2c(-c3cccc(C(=O)N[C@H]4CCN(C(=O)c5ccccc5)C4)c3)cc(C(F)(F)F)c12 [Example 79, 3-[4-amino-5-(trifluoromethyl)pyrrolo[2,1-f][1,2,4]triazin-7-yl]-N-[(3S)-1-benzoylpyrrolidin-3-yl]benzamide]",0.139
